Read counts are not given, so values of variants with three or more changes are uncertain.
B1: LINE1-mini (parent)
chain: GGCAGAGCUCAACACAGCGUGGCAAAGUGGCUGUGGCUAGACUGCC

Variants of: B1
Experiment: self-cleavage, relative activity (ratio to wild type); higher = more cleavage; in vitro, sequencing; the parent is a self-cleaving ribozyme

Row | Variant | self-cleavage
1 | GGCAGAGCUCAACACAGCGUGGCAAGGUUGCGGUGGCUAGACUGCC [A26G G29U U32G] | 0.05
2 | GGCAGAGCUCAACACAGCGUGGCAAUGUGCUUCUGGCUAGACUGCC [A26U G30C C31U G33C] | 0.05
3 | GGCAGAGCUCAACACAGCGUGGCAAUGAGGCUGUGGCUAGACUCCC [A26U U28A G44C] | 0.42
4 | GGCAGAGCUCAACACAGCGUGGCAAAAUGGUUGUGGCUAUACUGCC [G27A C31U G40U] | 0.26
5 | GGCAGAGCUCAACACAGCGUGGCAAGAUGGCAGUGGCUAGACUGCG [A26G G27A U32A C46G] | 0.03
6 | GGCAGAGCUCAACACAGCGUGGCAACGUGGCUGUGGCUAGACAGGC [A26C U43A C45G] | 0.11
7 | GGCAGAGCUCAACACAGCGUGGCAAGGUGUAUGUGGCUAGACUGCC [A26G G30U C31A] | 0.28
8 | GGCAGAGCUCAACACAGCGUGGCAAUGUGGCUGUGGCUGUACUGCC [A26U A39G G40U] | 0.08
9 | GGCAGAGCUCAACACAGCGUGGCAAAAUGGAUUUGGCUAGACUGCC [G27A C31A G33U] | 0.1
10 | GGCAGAGCUCAACACAGCGUGGCAAGGUGGCUGUGUAUAGACUGCC [A26G G36U C37A] | 0.1
11 | GGCAGAGCUCAACACAGCGUGGCAAGGUGGCUCUGGCUAGACAGCC [A26G G33C U43A] | 0
12 | GGCAGAGCUCAACACAGCGUGGCAAUUUGACUUUGGCUAGACUGCC [A26U G27U G30A G33U] | 0.06
13 | GGCAGAGCUCAACACAGCGUGGCAAGGUGUAUGUGGCGAGACUGCC [A26G G30U C31A U38G] | 0.1
14 | GGCAGAGCUCAACACAGCGUGGCAAUGCGGCAGUGGCUGGACUGCC [A26U U28C U32A A39G] | 0.06
15 | GGCAGAGCUCAACACAGCGUGGCAAAAUAGCUGUGGAUAGACUGCC [G27A G29A C37A] | 0.13
16 | GGCAGAGCUCAACACAGCGUGGCAAUCUGGCUGUGGCUAGAAUGCC [A26U G27C C42A] | 0.05
17 | GGCAGAGCUCAACACAGCGUGGCAAAAUAGCUUUGGCUAGACUCCC [G27A G29A G33U G44C] | 0.02
18 | GGCAGAGCUCAACACAGCGUGGCAAGGUGGCAGACGCUAGACUGCC [A26G U32A U34A G35C] | 0
19 | GGCAGAGCUCAACACAGCGUGGCAAUGUGGCUGUGGCUAGACCUCC [A26U U43C G44U] | 0.29

Row | Variant | self-cleavage
20 | GGCAGAGCUCAACACAGCGUGGCAAUGUGACUGUGGCUAGAAUGCC [A26U G30A C42A] | 0.19
21 | GGCAGAGCUCAACACAGCGUGGCAAUGUGCCUGUGGCUAGACUGUC [A26U G30C C45U] | 2.48
22 | GGCAGAGCUCAACACAGCGUGGCAAUGUGGCUGUGUCGAGACUGCC [A26U G36U U38G] | 0.01
23 | GGCAGAGCUCAACACAGCGUGGCAAUGUGGUUGUGUGUGGAUUGCC [A26U C31U G36U C37G A39G C42U] | 0
24 | GGCAGAGCUCAACACAGCGUGGCAAUGUUGCUGUGGCUAGAGUACC [A26U G29U C42G G44A] | 0.02
25 | GGCAGAGCUCAACACAGCGUGGCAAUGUAGCUGAGGCUAGACUGCC [A26U G29A U34A] | 0.06
26 | GGCAGAGCUCAACACAGCGUGGCAACGGGGCUGUGGCUAGACUGUC [A26C U28G C45U] | 0.23
27 | GGCAGAGCUCAACACAGCGUGGCAAUGUGGCUGUUGCGAGACUGCC [A26U G35U U38G] | 0.05
28 | GGCAGAGCUCAACACAGCGUGGCAAUGUGGCUCUGGCUAGACUGAC [A26U G33C C45A] | 0.01
29 | GGCAGAGCUCAACACAGCGUGGCAAUGUGGGUGUGGUUAGACUGCC [A26U C31G C37U] | 0.33
30 | GGCAGAGCUCAACACAGCGUGGCAAGGUGGUUGUGGCUAGACUUCC [A26G C31U G44U] | 0.02
31 | GGCAGAGCUCAACACAGCGUGGCAAGGUGGCUGGGGUUCGACUGCC [A26G U34G C37U A39C] | 0.03
32 | GGCAGAGCUCAACACAGCGUGGCAAUGUGACAGUGGCUCGACUGCC [A26U G30A U32A A39C] | 0.07
33 | GGCAGAGCUCAACACAGCGUGGCAAUGUGGUUGUGGCUAGAGUGCC [A26U C31U C42G] | 0.04
34 | GGCAGAGCUCAACACAGCGUGGCAAUGUGGUUGUGGCUAGACUCCC [A26U C31U G44C] | 0.02
35 | GGCAGAGCUCAACACAGCGUGGCAAUGUGGCUUUGCCUACACUGCC [A26U G33U G36C G40C] | 0.01
36 | GGCAGAGCUCAACACAGCGUGGCAAGGUGGAUGUGGCUAGACUACC [A26G C31A G44A] | 0.02
37 | GGCAGAGCUCAACACAGCGUGGCAAUGUGGAUGUGGCUAGAGUUCC [A26U C31A C42G G44U] | 0.02
38 | GGCAGAGCUCAACACAGCGUGGCAACGAGGCUGUUGCUAGACUGCC [A26C U28A G35U] | 0.05

Row | Variant | self-cleavage
39 | GGCAGAGCUCAACACAGCGUGGCAAUGUGGCUCUGGCUAGACUCCC [A26U G33C G44C] | 0.03
40 | GGCAGAGCUCAACACAGCGUGGCAAGAUGGCUGGGUCUACACUGUC [A26G G27A U34G G36U G40C C45U] | 0.04
41 | GGCAGAGCUCAACACAGCGUGGCAAGUUGGCUGUGGAUAGACUGCC [A26G G27U C37A] | 0.01
42 | GGCAGAGCUCAACACAGCGUGGCAAUGUGGCUAUGGCUAGACGGCC [A26U G33A U43G] | 0.05
43 | GGCAGAGCUCAACACAGCGUGGCAAGGUGGCUGUGGCAAGUCUGCC [A26G U38A A41U] | 0.27
44 | GGCAGAGCUCAACACAGCGUGGCAAUAUGGCUGUAGCAAGACUUCC [A26U G27A G35A U38A G44U] | 0.06
45 | GGCAGAGCUCAACACAGCGUGGCAAGUUGGCUGUGGCUAUAGUGCC [A26G G27U G40U C42G] | 0
46 | GGCAGAGCUCAACACAGCGUGGCAAUGUAGCUGUGUCUAGACUGCG [A26U G29A G36U C46G] | 0
47 | GGCAGAGCUCAACACAGCGUGGCAAGGUCGCUGUUGCUAGACUGCC [A26G G29C G35U] | 0.03
48 | GGCAGAGCUCAACACAGCGUGGCAAUGUGGCUGUAGCUAAACUGCC [A26U G35A G40A] | 0.06
49 | GGCAGAGCUCAACACAGCGUGGCAAUGUGGCUGUCACUAGACUGCC [A26U G35C G36A] | 0.02
50 | GGCAGAGCUCAACACAGCGUGGCAAGGGGGCUGUGGCAAGGCUACC [A26G U28G U38A A41G G44A] | 0.03
51 | GGCAGAGCUCAACACAGCGUGGCAAGUUAGCUGUGGCUACACUGCC [A26G G27U G29A G40C] | 0.07
52 | GGCAGAGCUCAACACAGCGUGGCAAAAUGGAUGUGGCUAGACUUCC [G27A C31A G44U] | 0.04
53 | GGCAGAGCUCAACACAGCGUGGCAAAAUGGUUGUGGCUACACGGCC [G27A C31U G40C U43G] | 0.48
54 | GGCAGAGCUCAACACAGCGUGGCAAAAUAGCUGUGGCUAGACUGGC [G27A G29A C45G] | 0.19
55 | GGCAGAGCUCAACACAGCGUGGCAAGGUGGUUGUGGCUAGAGUGCC [A26G C31U C42G] | 0.08
56 | GGCAGAGCUCAACACAGCGUGGCAAUCUGGCUGUGUCUAGACUGCC [A26U G27C G36U] | 0.03
